Assay results: PubChem BioAssay AID686979 (National Center for Advancing Translational Sciences (NCATS), 2013)
The whole screen tested about 420,000 compounds, of which about 50,000 (12%) were called active. Inconclusive results, whose numbers are uncertain, are shown with a selection of clear calls. Calls follow the shape of the dose curve; as a rule, active = well fitted inhibition curve with a large enough effect; inconclusive = small, poorly fitted or top-dose-only effect; inactive = flat fitted curve, though single readings scatter. No potency is given beside an inconclusive call; the fits are too rough. Where a structure was tested more than once in an assay, its records may differ in their call.

Assay: qHTS for Inhibitors of human tyrosyl-DNA phosphodiesterase 1 (TDP1): qHTS in cells in presence of CPT; also: nearly all actives have a fitted effect of over 55% in size
Conditions: chicken DT40 Tdp1-/-;hTDP1 cells + 20 nM CPT, ATP luminescence, 48 h; activity change, negative = growth inhibition: at 46.2 µM (top of the series)
Outline: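 Chicken DT40 Tdp1-/- cells stably complemented with human TDP1 were seeded at 400 cells/well in medium containing 20 nM camptothecin, exposed to pin-transferred compounds, and grown at 37 °C for at least 48 hr. Viability was read as ATP luminescence.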
% is scaled to controls: 0 for no effect and ±100 for the full control effect; potency is read from the fitted curve at half-maximal effect; tags tell the direction and shape of the fitted curve.

With `CCN1CCN(c2cc(C)c3cc(NC(=O)c4ccncc4)ccc3n2)CC1` as the compound, how does the Potency read?
Its Potency is inconclusive [inhibitor, single point].

Which “activity change, negative = growth inhibition” value does the source give for `COc1ccc(OCc2cc(C(=O)NC(C)Cn3cncn3)no2)c(Cl)c1` (centres undefined) here?
The value was inactive: 3.09%.

Which Potency does the source give for `COc1ccc(CCC(=O)Nc2cc(S(=O)(=O)N3CCCCC3)ccc2N(C)C)cc1` here?
Its Potency is inconclusive [inhibitor, single point].

With `Cc1ccc(S(=O)(=O)c2c(N)n(NC(=O)c3ccco3)c3nc4ccccc4nc23)cc1` as the compound, how does the “activity change, negative = growth inhibition” value read?
Its value is inactive: -0.604%.

With `O=C(CC1NCCNC1=O)Nc1cccc([N+](=O)[O-])c1` (centres undefined) as the compound, how does the Potency read?
Its Potency is inconclusive [inhibitor, single point].

For `Cc1ccc(C(=O)N2c3ccc(F)cc3CCC2C)o1` (centres undefined), which Potency is on record?
The Potency was inconclusive [inhibitor, single point].

Which Potency does the source give for `N#CCC(=O)Nc1ccc(C(=O)OCC(=O)N(C2CCCCC2)C2CCCCC2)cc1` here?
Its Potency is inconclusive [inhibitor, single point].

Which Potency does the source give for `CCN(CC)CCOc1ccc(Cc2ccccc2)cc1` here?
The Potency was active: 23.7 µM.

Which Potency does the source give for `Cc1ccc(SCc2nc(-c3ccc(C(=O)NCCc4ccc(Cl)cc4)cc3)oc2C)cc1` here?
The Potency was inconclusive [inhibitor, partial curve].

With `COc1ccc(NCC(=O)Nc2ccc(Cl)cc2C)c(OC)c1` as the compound, how does the Potency read?
The Potency was inconclusive [inhibitor, partial curve].

With `Cc1cc(C)cc(NC(=O)CSc2nc3[nH]ncc3c(=O)[nH]2)c1` as the compound, how does the Potency read?
Its Potency is inconclusive [inhibitor, partial curve].

Which Potency does the source give for `CCCCCCCCN1[C@@H](CC(=O)O)c2ccc(C(F)(F)F)cc2S1(=O)=O` here?
Its Potency is inconclusive [inhibitor, single point].

For `Cc1ccc(-c2nnc(Nc3ccccc3)c3ccccc23)cc1S(=O)(=O)NCC1CCCO1` (centres undefined), which Potency is on record?
Its Potency is active: 25.9 µM.

For `CCOC(=O)N1CCN(c2nc(SC)nc3sc4c(c23)CC(C)(C)OC4)CC1`, which Potency is on record?
The Potency was inconclusive [inhibitor, single point].

With `COc1ccc(N2CCN(S(=O)(=O)c3cn(C)cn3)CC2)cc1` as the compound, how does the “activity change, negative = growth inhibition” value read?
The value was inactive: 0.125%.

For `C[C@H](CO)N1C[C@H](C)[C@@H](CN(C)C(=O)Nc2ccc3c(c2)OCO3)Oc2c(NC(=O)Nc3ccccc3)cccc2C1=O`, which Potency is on record?
The Potency was inconclusive [inhibitor, single point].

Which Potency does the source give for `CC(C)N(Cc1ccccc1)C(=O)COC(=O)c1ccccc1SCC(=O)N1CCCC1` here?
The Potency was inconclusive [inhibitor, single point].

Which Potency does the source give for `COC(=O)c1cc2sc(Cl)cc2n1CC(=O)Nc1cc(C)cc(C)c1` here?
The Potency was active: 20.6 µM.

For `C/C(=N\NC(=O)c1cc(Cl)ccc1O)c1ccc(Br)s1`, which Potency is on record?
The Potency was inconclusive [inhibitor, single point].

For `COc1cc(/C=N/O)ccc1OCc1ccc([N+](=O)[O-])cc1`, which Potency is on record?
The Potency was inconclusive [inhibitor, single point].

Which “activity change, negative = growth inhibition” value does the source give for `O=C(OCC#CCSc1nnc(-c2cccc3ccccc23)o1)c1ccco1` here?
Its value is inactive: -9.96%.

With `CCCC(=O)N=C1SC2CS(=O)(=O)CC2N1c1ccc(C(C)=O)cc1` (centres undefined) as the compound, how does the “activity change, negative = growth inhibition” value read?
The value was inactive: -6.73%.

Which Potency does the source give for `COc1ccccc1CN1CC(C(=O)NCCC2=CCCCC2)CCC1=O` (centres undefined) here?
The Potency was inconclusive [inhibitor, partial curve, poor fit].

With `CCCN(Cc1cc2cc(C)ccc2[nH]c1=O)C(=O)c1cccc(OC)c1` as the compound, how does the Potency read?
The Potency was inconclusive [inhibitor, single point].

Which Potency does the source give for `COc1ccc(OC)c(NC(=O)[C@H](CSCc2ccccc2)N2Cc3ccccc3C2=O)c1` here?
The Potency was active: 20.6 µM.

Which Potency does the source give for `O=C(OCc1cnc(Cl)s1)c1c(F)cccc1F` here?
Its Potency is inconclusive [inhibitor, single point].

Which Potency does the source give for `C/C(=N\NS(=O)(=O)c1ccc(C)cc1)c1ccc(Br)s1` here?
Its Potency is inconclusive [inhibitor, partial curve].

For `CN(C(=O)COC(=O)c1cccnc1Nc1cccc(C(F)(F)F)c1)C1CCS(=O)(=O)C1` (centres undefined), which activity change, negative = growth inhibition is on record?
The activity change, negative = growth inhibition was inconclusive: -31.9% [inhibitor].

With `NC(=O)C1(N2CCCCC2)CCN(CC(=O)Nc2ccc(Oc3ccccc3)cc2)CC1` as the compound, how does the Potency read?
The Potency was inconclusive [inhibitor, single point].

With `CC(NC(=O)OC(C)(C)C)C(=O)Oc1cc2oc(=O)cc(-c3ccccc3)c2cc1Cl` (centres undefined) as the compound, how does the Potency read?
The Potency was inconclusive [inhibitor, single point].

For `O=C(/C(=C/c1ccc(Cl)cc1)c1nc2ccccc2[nH]1)c1cccs1`, which Potency is on record?
Its Potency is active: 2.91 µM.

For `CCc1nnc(NC(=O)CSc2nc3c(cc2C#N)CCC3)s1`, which Potency is on record?
Its Potency is inconclusive [inhibitor, partial curve].

With `N#Cc1nc(-c2ccc(COc3ccccc3)o2)oc1N1CCCCC1` as the compound, how does the Potency read?
The Potency was inconclusive [inhibitor, single point].

With `Nc1nc2ccc(S(=O)(=O)N3CCCCC3)cc2s1` as the compound, how does the Potency read?
Its Potency is active: 8.2 µM.

For `Cc1c(CC(=O)O)c(=O)oc2c(C)c3occ(-c4ccc(F)cc4)c3cc12`, which activity change, negative = growth inhibition is on record?
The activity change, negative = growth inhibition was inconclusive: -38.2% [inhibitor].

For `CCCSC(=S)c1c(C)[nH]n(-c2ccccc2)c1=O`, which Potency is on record?
Its Potency is active: 20.6 µM.

For `CCN(CC)S(=O)(=O)c1ccc(N2CCOCC2)c(NC(=S)NC(=O)c2ccco2)c1`, which Potency is on record?
The Potency was active: 10.3 µM.

With `COC(=O)c1c(N)n(-c2ccc(OC)c(OC)c2)c2nc3ccccc3nc12` as the compound, how does the Potency read?
The Potency was active: 5.8 µM.

With `Fc1ccc(-c2csc(Nc3ccccn3)n2)cc1` as the compound, how does the Potency read?
The Potency was active: 16.4 µM.

Which “activity change, negative = growth inhibition” value does the source give for `Cc1ccc(CNC(=O)Cn2c(=O)n(-c3ccc(C)cc3)c(=O)c3c2c2cc(C)ccc2n3C)cc1` here?
Its value is inactive: -11.8%.

With `COc1ccc(NC(=S)NNc2ccc(S(=O)(=O)Nc3ccccc3C(=O)O)cc2[N+](=O)[O-])cc1` as the compound, how does the Potency read?
Its Potency is inconclusive [inhibitor, single point].

With `CCNC(=O)NC(=O)C(C)N1C(=O)NC(c2ccccc2)(c2ccccc2)C1=O` (centres undefined) as the compound, how does the “activity change, negative = growth inhibition” value read?
Its value is inactive: -6.24%.

Which Potency does the source give for `O=C(CSc1nc2ccccc2o1)NCc1ccc2c(c1)OCO2` here?
Its Potency is inconclusive [inhibitor, single point].

For `COc1ccc(NC(=O)C2(C)CCN2Cc2cccc(OC)c2F)cc1OC` (centres undefined), which Potency is on record?
Its Potency is active: 23.1 µM.
